# Reference: the supplement of paper PMC9174493
# Counter-ions that a name gives are not always drawn. This is one part of the list. Single values of this set are uncertain. Values with irradiation are relative to irradiated vehicle.
# Key:
# A549-Dual [1] = assay: NF-kB reporter (SEAP) activity, viability-corrected, relative to vehicle (fold change vs vehicle); higher = more activation of STING-IRF / NF-kB immune response reporter
# A549-Dual [2] = assay: ISRE reporter (Lucia luciferase) activity, viability-corrected, relative to vehicle (fold change vs vehicle); higher = more activation of STING-IRF / NF-kB immune response reporter
# 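Throughout, for NF-kB reporter (SEAP) activity, viability-corrected, relative to vehicle: viability correction based on the alamar blue assay, with concentrations leaving 10% survival or less dropped.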
Compound,"NF-kB reporter (A549-Dual [1]; 0.1 µM, irradiation: 8 Gy/4 fr)","NF-kB reporter (A549-Dual [1]; 0.1 µM, irradiation: none)","NF-kB reporter (A549-Dual [1]; 0.3 µM, irradiation: 8 Gy/4 fr)","NF-kB reporter (A549-Dual [1]; 0.3 µM, irradiation: none)","NF-kB reporter (A549-Dual [1]; 1 µM, irradiation: 8 Gy/4 fr)","NF-kB reporter (A549-Dual [1]; 1 µM, irradiation: none)","NF-kB reporter (A549-Dual [1]; 3 µM, irradiation: 8 Gy/4 fr)","NF-kB reporter (A549-Dual [1]; 3 µM, irradiation: none)","NF-kB reporter (A549-Dual [1]; 10 µM, irradiation: 8 Gy/4 fr)","NF-kB reporter (A549-Dual [1]; 10 µM, irradiation: none)","ISRE reporter (A549-Dual [2]; 0.1 µM, irradiation: 8 Gy/4 fr)","ISRE reporter (A549-Dual [2]; 0.1 µM, irradiation: none)","ISRE reporter (A549-Dual [2]; 0.3 µM, irradiation: 8 Gy/4 fr)","ISRE reporter (A549-Dual [2]; 0.3 µM, irradiation: none)","ISRE reporter (A549-Dual [2]; 1 µM, irradiation: 8 Gy/4 fr)","ISRE reporter (A549-Dual [2]; 1 µM, irradiation: none)","ISRE reporter (A549-Dual [2]; 3 µM, irradiation: 8 Gy/4 fr)","ISRE reporter (A549-Dual [2]; 3 µM, irradiation: none)","ISRE reporter (A549-Dual [2]; 10 µM, irradiation: 8 Gy/4 fr)","ISRE reporter (A549-Dual [2]; 10 µM, irradiation: none)"
CC(Oc1cc(-c2cnn(C3CCNCC3)c2)cnc1N)c1c(Cl)ccc(F)c1Cl [(S)-crizotinib],0.847,0.945,0.763,1.05,0.862,1.6,0.727,1.29,0.766,0.893,0.916,1.13,0.952,1.05,1.01,1.09,0.929,1.29,0.949,1.13
C=CC(=O)Nc1cc(Nc2nccc(-c3cn(C)c4ccccc34)n2)c(OC)cc1N(C)CCN(C)C [Osimertinib (AZD9291)],0.924,0.975,0.915,1.05,1.02,1.01,1.02,0.874,1.14,1.15,0.971,0.974,0.964,1.19,1.12,1.12,1.18,1.71,1.41,2.52
CC(C)(C)NCC(O)c1ccc(O)c(CO)c1 (centres undefined) [Salbutamol],0.768,0.45,0.638,0.437,0.899,0.72,0.409,0.565,0.524,0.948,0.715,0.737,0.578,0.668,0.907,1.07,0.571,0.644,0.711,1
O=C(OCCOCCO)c1ccccc1Nc1cccc(C(F)(F)F)c1 [Etofenamate],0.964,1.11,1,0.946,1.16,0.891,0.956,0.89,0.771,1.03,0.888,0.753,0.933,0.635,0.721,0.65,0.827,0.789,0.644,1.05
CN1CCC(=C2c3ccccc3CCn3c(C=O)cnc32)CC1 [Alcaftadine],0.87,0.843,0.963,0.808,0.961,0.834,1.01,1,0.859,0.95,0.973,0.827,0.915,0.704,0.871,0.82,0.943,0.966,0.975,0.909
"CCCS(=O)(=O)Nc1ccc(F)c(C(=O)c2c[nH]c3ncc(-c4ccc(Cl)cc4)cc23)c1F [Vemurafenib (PLX4032, RG7204)]",0.797,1,0.86,0.924,0.711,0.841,0.534,0.671,0.58,0.675,0.861,0.949,0.969,1.03,0.726,1.02,0.492,0.892,0.643,1.21
CC(C(=O)O)c1ccc(C(=O)c2cccs2)cc1 (centres undefined) [Suprofen],0.786,0.75,0.839,1,1,0.791,1.07,0.826,0.749,0.904,0.802,0.698,0.77,0.867,0.693,0.801,0.746,0.811,0.713,0.901
Cc1nc2ccc(CN(C)c3ccc(C(=O)NC(CCC(=O)O)C(=O)O)s3)cc2c(=O)[nH]1 (centres undefined) [Raltitrexed],1.27,1.79,1.4,1.99,1.2,1.69,1.4,1.89,1.33,1.53,0.643,2.2,0.733,2.6,0.591,2.29,0.659,2.76,0.632,2.05
CN(Cc1cnc2nc(N)nc(N)c2n1)c1ccc(C(=O)NC(CCC(=O)O)C(=O)O)cc1 (centres undefined) [Methotrexate],1.13,1.25,0.983,1.56,0.823,2,1.02,1.74,0.691,1.42,0.848,0.568,0.158,0.769,0.113,0.746,0.0837,0.535,0.121,0.568
COC(=O)C(Cc1ccccc1)NC(=O)C(N)CC(=O)O (centres undefined) [Aspartame],1.03,1.74,1.27,2.02,1.61,1.31,1.94,1.28,1.46,0.993,1.09,1.37,1.13,1.34,1.15,1.18,1.17,1.35,1.12,0.739
CN(C)C(=O)c1cc2cnc(Nc3ccc(N4CCNCC4)cn3)nc2n1C1CCCC1 [Ribociclib (LEE011)],0.936,0.905,0.8,1,0.887,1.37,0.869,1.09,0.925,0.961,0.913,1.24,0.799,1.17,0.91,1.17,0.812,0.912,0.741,1.22
"O=C(c1ccc(F)c(F)c1Nc1ccc(I)cc1F)N1CC(O)(C2CCCCN2)C1 (centres undefined) [Cobimetinib (GDC-0973, RG7420)]",1.17,1.51,1.05,2.05,1.17,2.54,1.67,2.51,3.63,2.91,0.532,0.76,0.211,0.746,0.267,0.489,0.0504,0.248,0.0843,0.288
CC(C(=O)[O-])c1cccc(Oc2ccccc2)c1.CC(C(=O)[O-])c1cccc(Oc2ccccc2)c1.[Ca+2] (centres undefined) [Fenoprofen Calcium],0.894,1.37,0.977,1.37,1.34,1.01,1.33,1,0.734,0.893,0.96,0.959,0.812,0.947,0.786,0.87,0.766,0.944,0.593,0.76
Nc1nc(F)nc2c1ncn2C1OC(CO)C(O)C1O (centres undefined) [Fludarabine],0.866,1.11,0.91,1.07,0.794,1.02,0.886,0.771,0.941,0.882,0.906,0.904,1.09,0.905,0.83,1.01,0.921,0.747,0.868,0.949
CC(C)CC(NC(=O)CNC(=O)c1cc(Cl)ccc1Cl)B1OC(=O)CC(CC(=O)O)(C(=O)O)O1 (centres undefined) [Ixazomib Citrate (MLN9708)],1.16,1.66,1.45,1.95,1.25,3.09,1.28,2.39,1,1.79,0.183,1.3,0.0694,0.496,0.099,0.521,0.104,0.464,0.067,0.381
CC(=O)OC[C@H]1O[C@@H]([S-])[C@H](OC(C)=O)[C@@H](OC(C)=O)[C@@H]1OC(C)=O.CCP(CC)CC.[Au+] [Auranofin],1.02,0.998,1.07,0.947,1.09,1.02,1.16,0.974,–,–,0.953,0.756,0.863,0.759,0.621,0.794,0.797,0.865,–,–
CC(C)CC(NC(=O)C(Cc1ccccc1)NC(=O)c1cnccn1)B(O)O (centres undefined) [Bortezomib (PS-341)],2.75,4.01,–,–,–,–,–,–,–,2.86,0.285,1.07,–,–,–,–,–,–,–,0.96
CCC1(O)C(=O)OCc2c1cc1n(c2=O)Cc2cc3cc(O)ccc3nc2-1 (centres undefined) [Hydroxy Camptothecine],1.1,1.71,1.14,3.24,1.31,2.82,–,6.36,4.15,5.62,1.09,7.02,1.42,9.56,1.7,7.62,–,16.6,1.95,20.9
COc1cc(Nc2ncc(F)c(Nc3ccc4c(n3)N(COP(=O)(O)O)C(=O)C(C)(C)O4)n2)cc(OC)c1OC [Fostamatinib (R788)],0.969,1.1,1.05,1.21,1.5,1.01,1.32,–,–,–,0.606,1.13,0.802,0.404,0.05,0.207,0.0813,–,–,–
CCNC(=O)C1CCCN1C(=O)C(CCCNC(=N)N)NC(=O)C(CC(C)C)NC(=O)C(CC(C)C)NC(=O)C(Cc1ccc(O)cc1)NC(=O)C(CO)NC(=O)C(Cc1c[nH]c2ccccc12)NC(=O)C(Cc1cnc[nH]1)NC(=O)C1CCC(=O)N1 (centres undefined) [Leuprorelin Acetate],0.872,0.929,0.758,0.725,0.865,0.858,0.815,0.925,0.839,0.855,0.929,1.17,0.871,0.851,0.921,0.976,0.916,0.791,0.945,0.783
C=C1CC23CCC4C(C)(C(=O)OC5OC(CO)C(O)C(O)C5O)CCCC4(C)C2CCC1(OC1OC(CO)C(O)C(O)C1OC1OC(CO)C(O)C(O)C1O)C3 (centres undefined) [Stevioside],–,–,–,–,–,–,–,–,1.1,0.839,–,–,–,–,–,–,–,–,1,0.695
Cc1cc2c(C(N)=O)cccc2n1-c1nc2c(c(NCc3ccccc3)n1)COCC2,1.04,0.838,0.403,0.986,0.676,1.6,–,–,–,–,0.778,0.787,0.0562,1,0.149,0.441,–,–,–,–
COc1cc(C(=O)NS(=O)(=O)c2ccccc2C)ccc1Cc1cn(C)c2ccc(NC(=O)OC3CCCC3)cc12 [Zafirlukast],1.02,1.64,1.13,1.72,1.49,1.27,1.58,1.18,1.55,1.04,1.23,1.21,1.1,1.12,0.986,1.21,1.01,1.37,1.02,1.2
O=C1/C(=C2\Nc3ccccc3C2=O)Nc2ccccc21 [Indigo],–,–,–,–,–,–,–,–,0.7,0.754,–,–,–,–,–,–,–,–,0.299,0.356
Nc1c(CC(=O)[O-])cccc1C(=O)c1ccc(Br)cc1.[Na+] [Bromfenac Sodium],1.25,1.09,1.01,0.833,1.3,0.975,1.1,0.933,1.07,1.02,1.13,0.837,0.962,0.677,0.686,0.661,0.744,0.917,0.791,0.882
